# Values joined by “and” are separate entries in the source; they are usually repeats but may differ in a detail not shown here. Equal values may be shown once. Among all 420,000 compounds or so, about 64,000 (15%) were called active. This list was built around the results that the source calls inconclusive (neither active nor inactive); the mix of calls is not that of the screen. The call rests on the fitted dose curve; in most records, active means well fitted inhibition curve with a large enough effect; inconclusive means small, poorly fitted or top-dose-only effect; inactive means flat fitted curve, though single readings scatter. Where the call is inconclusive, the potency comes from a doubtful curve fit.
# Experiment: qHTS for Inhibitors of human tyrosyl-DNA phosphodiesterase 1 (TDP1): qHTS in cells in absence of CPT; further: nearly all actives have a fitted effect of over 55% in size
# Conditions: DT40 Tdp1-/- hTDP1 cells, no CPT, ATP luminescence, 48 h; activity change, negative = growth inhibition: at 46.2 µM (top of the series) unless noted
# How it was run: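 Stably hTDP1-transfected Tdp1-null chicken DT40 cells were treated with library compounds minus camptothecin and grown for at least 48 hr at 37 °C, after which cellular ATP was quantified by luminescence.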
# On the % scale 0 is the no-effect control and ±100 the full control effect; potency means the concentration at half of the fitted maximal effect; tags describe the fitted curve by direction and shape.
Compound,Potency,"activity change, negative = growth inhibition"
Cc1cccc(C)c1NC(=O)C1C(c2ccc3c(c2)OCO3)=Nc2ccccc2N1C(=O)c1cccc(C(F)(F)F)c1 (centres undefined),active: 7.31 µM,
COC(=O)C1=C(CS(=O)(=O)c2ccc(OC)cc2)NC(=O)NC1c1ccccc1 (centres undefined),inactive,
CCN(CC(=O)Nc1ccc(NC(C)=O)cc1)c1ccc(C(F)(F)F)cn1,,inconclusive: -32.9% [inhibitor]
CCOc1ccc2nc(NC(=O)C3CCN(C(=O)c4ccco4)CC3)sc2c1,"inconclusive: 25.9 µM [inhibitor, single point]",
CC1Cc2cc(S(=O)(=O)CCC(=O)Nc3ccc(F)c(Cl)c3)ccc2N1C(=O)C1CC1 (centres undefined),active: 10.3 µM,
O=C(c1ccccc1)c1ccc2nc(-c3ccc(NC(=O)c4ccccc4Br)cc3)[nH]c2c1,"inconclusive: 25.9 µM [inhibitor, single point]",
Cc1cc(=O)[nH]c(N/N=C/c2ccc(-c3ccc([N+](=O)[O-])cc3)o2)n1,"inconclusive: 16.4 µM [inhibitor, single point]",
COc1cccc(C(=O)N2CCCC(c3nc(-c4cccs4)no3)C2)c1 (centres undefined),"inconclusive: 29.1 µM [inhibitor, single point]",
O=C(N/N=C/c1ccc([N+](=O)[O-])cc1)c1cc(C2CC2)nc2ccccc12,active: 7.31 µM,
Cc1ccc(S(=O)(=O)Nc2ccc(N3CCOCC3)nc2)cc1,"inconclusive: 25.9 µM [inhibitor, single point]",
CCN(CC)CCOC(=O)c1ccc(NC(=O)CCCN2C(=O)S/C(=C/c3ccc(OC)cc3)C2=S)cc1,active: 20.6 µM,
CCCCNC(=O)COc1ccccc1[N+](=O)[O-],inactive,
N#Cc1ccc(Nc2nc(-c3ccc(O)cc3O)cs2)cc1C(F)(F)F,active: 10.3 µM,
CN(C[C@@H](Cc1cccc2ccccc12)N(C[C@H](Cc1ccccc1)N(CCc1ccccc1)N=O)N=O)N=O,inactive,
OCC1(CCOc2ccccc2)CCN(Cc2cn[nH]c2-c2ccc(F)cc2)CC1,"inconclusive: 29.1 µM [inhibitor, single point]",
COC(=O)/C(=C/c1cn(C(C)=O)c2ccccc12)[N+](=O)[O-],"inconclusive: 29.1 µM [inhibitor, single point]",
CCOc1ccc(N2CC(C(=O)NNC(=O)c3ccc(F)cc3)CC2=O)cc1 (centres undefined),inactive,
CC(=O)NC(c1cccc(F)c1)c1nc(-c2csc3ccccc23)cs1 (centres undefined),"inconclusive: 29.1 µM [inhibitor, single point]",
COc1ccc(S(=O)(=O)N2CCOCC2)cc1NC(=O)CSc1nc(C)c(C)c(C)n1,"inconclusive: 9.2 µM [inhibitor, single point]",
S=c1[nH]nc(-c2ccc(Cl)cc2)n1/N=C/c1ccco1,"inconclusive: 0.461 µM [inhibitor, full curve, poor fit]",
CCCC1=NN(c2ccc([N+](=O)[O-])cc2)C(=O)/C1=C\N(C)C,inactive,
COc1ccc(C2NC(=O)N(C)C3=C2C(=O)N(c2ccc(F)cc2)C3)cc1 (centres undefined),inactive,
CC1CC(C)CN(C(=O)COC(=O)c2ccc3ccccc3n2)C1 (centres undefined),inactive,

Compound,Potency,"activity change, negative = growth inhibition"
O=C(O)c1ccc(NC(=S)NC(=O)c2ccc(-c3ccccc3)cc2)cc1,"inconclusive: 18.4 µM [inhibitor, single point]",
Cc1nn2c(C)c(C(=O)NCC(C)c3ccccc3)cnc2c1-c1ccccc1 (centres undefined),"inconclusive: 18.4 µM [inhibitor, single point]",
COc1ccc(NC(=S)N(CCc2ccc(OC)c(OC)c2)Cc2ccccn2)cc1,"inconclusive: 18.4 µM [inhibitor, partial curve]",
O=C(NCCc1nc2ccccc2n1CCCOc1ccc(Cl)cc1)C1CCCCC1,"inconclusive: 20.6 µM [inhibitor, single point]",
O=C(Nc1c2c(nn1-c1ccc(Cl)cc1)CS(=O)(=O)C2)c1ccccc1F,"inconclusive: 18.4 µM [inhibitor, single point]",
Cc1ccccc1CC1CCN(CCCNC(=O)Nc2ccccc2)CC1,"inconclusive: 29.1 µM [inhibitor, single point]",
C=CCn1c(C23CC4CC(CC(C4)C2)C3)n[nH]c1=S,"inconclusive: 23.1 µM [inhibitor, single point]",
Cc1ccc(C(O)(C(=O)NNc2ccc3ccccc3n2)c2ccc(C)cc2)cc1,"inconclusive: 25.9 µM [inhibitor, single point] and inconclusive: 29.1 µM [inhibitor, single point]",
Cc1cc(NC(=O)CSc2nnc(C3COc4ccccc4O3)n2C)no1 (centres undefined),inactive,
Cc1cccc(CNC(=O)c2cnn(-c3nccc(-c4cc(C)sc4C)n3)c2C)n1,inactive,
O=C(c1cccc(Cl)c1)N1CCC(N2CCC(C(=O)N3CCOCC3)CC2)CC1,inactive,
CN(C(=O)c1ccc(NC(=O)Cc2cccc(NC(=O)C3CCN(C(=O)C4CCCC4)CC3)c2)cc1)C1CCCC1,"inconclusive: 14.6 µM [inhibitor, partial curve]",
O=C(NCCO)c1ccc(-c2nnc(Nc3ccc(O)cc3)c3ccccc23)cc1,inactive,
Cc1ccc(Cc2cnc(NC(=O)/C(C#N)=C/c3ccc(-c4ccccc4[N+](=O)[O-])o3)s2)cc1,"inconclusive: 20.6 µM [inhibitor, single point]",
CC(C)c1ccc(NCCC(=O)c2cccs2)cc1,active: 5.17 µM,
CN(C)CCCn1c(SCc2ccc(Cl)cc2)nnc1-c1ccncc1,,inconclusive: -6.11% [inhibitor]
Cc1nn(Cc2ccccc2Cl)c2sc(C(=O)Nc3ccccc3N3CCOCC3)cc12,"inconclusive: 7.31 µM [inhibitor, partial curve]",
Cc1cccc(NC(=O)CSc2nccn2-c2cccc(Cl)c2)c1C,"inconclusive: 29.1 µM [inhibitor, single point]",
Cc1cccc(NC(=O)c2sc3nc(-c4ccccc4)cn3c2C)n1,"inconclusive: 29.1 µM [inhibitor, single point]",
Nn1cnc2c(c1=O)C1(CCCCC1)Cc1ccccc1-2,active: 8.2 µM,
Cc1cccc(S(=O)(=O)c2c(N)n(/N=C/c3ccccc3)c3nc4ccccc4nc23)c1,,inconclusive: -33.8% [inhibitor]
O=C(Nc1ccc2ccccc2n1)c1ccccc1,"inconclusive: 11.6 µM [inhibitor, partial curve]",
Cc1ccc(NC(=O)c2sc(-n3nc(C)c(Cc4ccc5c(c4)OCO5)c3C)nc2C)cc1C,"inconclusive: 29.1 µM [inhibitor, single point]",

Compound,Potency,"activity change, negative = growth inhibition"
CC(=O)N1CCc2cc3nc(C)cc(C)c3cc21,inactive,
CCC(C(=O)NCc1ccccc1Cl)n1nc(C)c2sc3ccccc3c2c1=O (centres undefined),"inconclusive: 25.9 µM [inhibitor, single point]",
CCN1C(=O)/C(=C/c2ccc(C)s2)NC1=S,"inconclusive: 16.4 µM [inhibitor, partial curve]",
CCN(c1ccc(NC(=O)CCNC(=O)c2ccco2)cc1)C(C)C,"inconclusive: 23.1 µM [inhibitor, single point]",
CC(=O)c1c(C)nc2ccc([N+](=O)[O-])cc2c1-c1ccccc1,"inconclusive: 23.1 µM [inhibitor, partial curve, poor fit]",
Cc1ccc(NC(=O)c2cc(S(=O)(=O)N3CCCCC3)c[nH]2)cc1C,,inconclusive: -31.3% [inhibitor]
CSc1ccc(NC(=O)NCc2ccccc2)cc1,inactive,
CCC(C(=O)N1CCN(Cc2ccc3c(c2)OCO3)CC1)n1nnc2ccccc2c1=O (centres undefined),"inconclusive: 20.6 µM [inhibitor, single point]",
Cc1cccc(-n2ncc3c(NCc4ccccc4)ncnc32)c1,active: 6.51 µM,
Clc1ccc(OC2CCN(Cc3nc(CC4CC4)no3)CC2)cc1,"inconclusive: 29.1 µM [inhibitor, single point]",
C=CCN(c1ccccc1)S(=O)(=O)c1cccc(C(=O)Nc2cccc(C)n2)c1,active: 23.1 µM,
CCCOc1ccc(C2c3c(oc4cc(C)c(C)cc4c3=O)C(=O)N2CCCN2CCOCC2)cc1 (centres undefined),inactive,
CN(CC(=O)Nc1ccc(F)cc1)CC(=O)N1CCCC1,inactive,
CCOC(=O)CN1C(=O)c2cccnc2Oc2ccccc21,inactive,
Cc1ccc(NC(=O)N2CCC(NC(=O)c3cccc(F)c3)CC2)cc1,inactive,
CC(=O)N1c2ccc(S(=O)(=O)N3CCC(C(=O)Nc4ccc(C)cn4)CC3)cc2CC1C (centres undefined),"inconclusive: 18.4 µM [inhibitor, single point]",
COc1cc(/C=C2\SC(=O)NC2=O)ccc1Oc1ccc([N+](=O)[O-])cn1,"inconclusive: 11.6 µM [inhibitor, partial curve]",
Cc1cc(C)c(NC(=O)C2CCN(C(=O)c3ccco3)CC2)c(C)c1,inactive,
CCOc1ccccc1N1CCN(C(=O)NCc2ccc(Cl)cc2)CC1,"inconclusive: 16.4 µM [inhibitor, single point]",
O=S(=O)(NCCCCNS(=O)(=O)c1ccc(F)cc1)c1ccc(F)cc1,"inconclusive: 16.4 µM [inhibitor, single point]",
O=C(COC(=O)c1ccccc1[N+](=O)[O-])Nc1cc(S(=O)(=O)N2CCOCC2)ccc1N1CCCC1,"inconclusive: 25.9 µM [inhibitor, single point]",
COc1ccc(NC(=O)c2cccc3c2C(=O)c2ccc(-c4cnc(OC)nc4)cc2S3(=O)=O)cc1,inactive,
O=C(Nc1ccc2oc(-c3ccccc3F)nc2c1)c1ccc2c(c1)OCCO2,active: 14.6 µM,

# Reference: PubChem BioAssay AID686978 (National Center for Advancing Translational Sciences (NCATS), 2013)
